Test results published in the supplement of paper PMC4723716.
± gives the uncertainty stated by the source. In all, about 9,900 compounds were measured (“viability index relative to DMSO control”: median about 1, lowest 2% from about 0.85 on). The list shows a part of the results.

Tested on: Plasmodium falciparum NF54 stage V gametocytes
Experiment: viability index relative to DMSO control (fraction); higher = less gametocyte killing
Details: 2.5 µM, library set: Broad Institute DOS, incubation time: 72 h
Experimental: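 Broad DOS informer set and blood-stage-active DOS compounds screened in duplicate at 2.5 µM against P. falciparum NF54 stage V gametocytes with the serum-free one-step SaLSSA (1536-well): 72 h at 37 °C under low oxygen, then saponin lysis and MitoTracker Red CMXRos staining, with high-content imaging. Viability index = viable-object count divided by the plate mean of DMSO wells (0 = killed, about 1 = inactive).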

| Compound | viability index |
| --- | --- |
| CN1C(=O)c2cc(NC(=O)c3cnccn3)ccc2OC[C@@H]2O[C@H](CC(=O)NCC3CCCCC3)CC[C@H]21 | 0.999 ± 0.11 |
| CS(=O)(=O)Nc1ccc2c(c1)[C@@H]1C[C@@H](CC(=O)NCCc3ccccc3)O[C@H](CO)[C@@H]1O2 | 1.01 ± 0.0053 |
| C[C@@H]1CN([C@H](C)CO)S(=O)(=O)c2ccc(C#CC(C)(C)O)cc2O[C@@H]1CN(C)Cc1ccc(F)cc1 | 0.969 ± 0.051 |
| COc1ccccc1CN1[C@H](CO)[C@@H]2c3ccccc3N(C(=O)C3CCOCC3)C[C@@H]21 | 1.07 ± 0.033 |
| CO[C@@H]1CN(C)C(=O)c2ccc(NC(=O)c3cccc(F)c3)cc2OC[C@@H](C)NC[C@H]1C | 1.09 ± 0.072 |
| COc1ccc(S(=O)(=O)N(C)C[C@H]2OCCCC[C@H](C)Oc3ccc(NC(=O)Cc4ccccc4)cc3C(=O)N([C@H](C)CO)C[C@@H]2C)cc1 | 0.994 ± 0.022 |
| O=C(CCN1CCCCC1)N[C@H]1CC[C@@H](CC(=O)N2CCC(Cc3ccccc3)CC2)O[C@H]1CO | 0.956 ± 0.035 |
| COc1ccc(C[C@@H]2CCn3cc(nn3)COC[C@H](C)NC2=O)cc1 | 1.102 ± 0.0077 |
| CC(=O)N1C[C@@H]2N[C@H](C1)[C@H]2c1ccc(-c2ccccc2)cc1 | 1.11 ± 0.016 |
| COc1ccc(CNC(=O)C[C@H]2C=C[C@H](NC(=O)c3cccc(F)c3)[C@@H](CO)O2)cc1 | 0.94 ± 0.062 |
| C[C@@H]1CN([C@@H](C)CO)C(=O)c2c(c3ccccc3n2C)-c2ccccc2CO[C@H]1CN(C)C(=O)[C@@H]1CCCN1C | 0.983 ± 0.013 |
| COc1ccccc1-c1ccc([C@@H]2[C@@H](CO)N3CCCCN(C(=O)c4cccnc4)C[C@H]23)cc1 | 1.02 ± 0.05 |
| CCCNC[C@@H]1[C@@H](c2ccc(C3=CCCCC3)cc2)[C@@H](CO)N1C(=O)C1CCC1 | 1.033 ± 0.01 |
| C[C@@H]1COCn2nncc2CC[C@H](Cc2ccc(-c3ccccc3)cc2)C(=O)N1 | 1.01 ± 0.029 |
| CCN1[C@@H]2c3ccc(-c4ccc(F)cc4)c(=O)n3C[C@H]1[C@H](CO)[C@H]2C(=O)Nc1nccs1 | 0.977 ± 0.069 |
| CC(=O)N1[C@@H](CO)[C@@H](c2ccccc2)[C@@H]1CNC(=O)CN1CCOCC1 | 1.01 ± 0.049 |
| C[C@H]1CN([C@@H](C)CO)C(=O)c2cc(NS(=O)(=O)c3cccs3)ccc2O[C@H]1CN(C)S(=O)(=O)c1ccc(Cl)cc1 | 0.94 ± 0.062 |
| COc1ccc(CN(C)C[C@@H]2Oc3ccc(NC(=O)Nc4ccc5c(c4)OCO5)cc3CC(=O)N([C@@H](C)CO)C[C@H]2C)cc1 | 0.918 ± 0.026 |

| Compound | viability index |
| --- | --- |
| CCC(=O)N1Cc2cc(C(=O)Nc3nccs3)nc(-c3cccc(-c4ccccc4OC)c3)c2[C@H]1CCO | 0.9756 ± 0.001 |
| O=C(C[C@H]1CC[C@@H](NC(=O)c2cccnc2)[C@H](CO)O1)NCc1ccc(Cl)c(Cl)c1 | 0.993 ± 0.055 |
| CN1C(=O)c2cc(NC(=O)c3cccc(F)c3)ccc2OC[C@H]2O[C@H](CC(=O)NCc3ccccc3Cl)CC[C@@H]21 | 0.944 ± 0.061 |
| N#C[C@H]1[C@@H](c2ccccc2C2=CCCCC2)[C@@H](CO)N1C(=O)Nc1ccccc1F | 1.16 ± 0.039 |
| CCCNC(=O)Nc1ccc2c(c1)OC[C@@H](C)N(Cc1cncnc1)C[C@@H](C)[C@H](OC)CN(C)C2=O | 1.03 ± 0.044 |
| CNC(=O)C[C@H]1CC[C@@H]2[C@H](COc3ccc(NS(=O)(=O)c4ccc(F)cc4)cc3C(=O)N2C)O1 | 1.101 ± 0.01 |
| COc1ccc2c3c([nH]c2c1)[C@H](CO)N(C[C@]31CN(Cc2cc(on2)-c2ccccc2)C1)C(=O)Nc1ccc(F)cc1 | 1.08 ± 0.067 |
| CCC(=O)N1CC[C@@H]2[C@@H](CO)Nc3ccc(C#Cc4ccccc4F)cc3[C@@H]21 | 1.06 ± 0.034 |
| COCC(=O)Nc1ccc2c(c1)[C@@H]1C[C@@H](CC(=O)N3CCOCC3)O[C@H](CO)[C@@H]1O2 | 1.1 ± 0.045 |
| Cc1noc(C)c1NC(=O)Nc1ccc2c(c1)C(=O)N(C)[C@H]1CC[C@H](CC(=O)N[C@@H]3CCN(Cc4ccccc4)C3)O[C@@H]1CO2 | 0.898 ± 0.15 |
| O=C(Cc1ccncc1)N1CC[C@@H]2[C@H]1c1cc(Br)ccc1N[C@@H]2CO | 0.983 ± 0.081 |
| CN(C)C(=O)c1cccc(-c2ccc([C@@H]3[C@@H]4CN(C(=O)CN5CCOCC5)C[C@H]3N4)cc2)c1 | 1.08 ± 0.033 |
| CO[C@@H]1CN(C)C(=O)c2ccc(NC(=O)c3cc(C)on3)cc2OC[C@@H](C)N(S(=O)(=O)c2cccc(F)c2)C[C@H]1C | 1 ± 0.019 |
| CO[C@@H]1CC[C@H]2CCN(C)C(=O)[C@@H](C)CN(C)C(=O)c3cc(C#N)ccc3OC[C@@H]1O2 | 1.03 ± 0.076 |
| O=C(C[C@H]1CC[C@H]2[C@@H](COC[C@@H](O)CN2C(=O)Nc2ccccc2)O1)NCc1ccccc1F | 1.05 ± 0.048 |
| COc1ccc(CN(C)C[C@@H]2OCCCC[C@@H](C)Oc3ccc(NC(=O)C4CCCCC4)cc3C(=O)N([C@@H](C)CO)C[C@H]2C)cc1 | 0.971 ± 0.019 |
| CNC[C@@H]1OCCCC[C@H](C)Oc2ccc(NC(=O)Nc3ccc(OC)cc3)cc2C(=O)N([C@H](C)CO)C[C@@H]1C | 1.07 ± 0.029 |
